The text below walks through data of PMC6018503.

Protein sequences, listed by entry. Tags and fused reporters are not part of them.
UniProt Q9FXM3: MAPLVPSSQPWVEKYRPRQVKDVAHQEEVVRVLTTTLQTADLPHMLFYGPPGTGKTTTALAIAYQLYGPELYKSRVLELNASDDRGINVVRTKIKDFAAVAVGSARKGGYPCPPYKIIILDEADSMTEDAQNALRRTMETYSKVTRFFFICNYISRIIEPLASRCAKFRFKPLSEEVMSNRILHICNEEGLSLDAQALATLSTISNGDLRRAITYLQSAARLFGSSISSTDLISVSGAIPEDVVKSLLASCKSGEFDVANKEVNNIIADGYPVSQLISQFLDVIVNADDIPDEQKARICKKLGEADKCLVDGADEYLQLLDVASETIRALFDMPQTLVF
UniProt Q93ZX1: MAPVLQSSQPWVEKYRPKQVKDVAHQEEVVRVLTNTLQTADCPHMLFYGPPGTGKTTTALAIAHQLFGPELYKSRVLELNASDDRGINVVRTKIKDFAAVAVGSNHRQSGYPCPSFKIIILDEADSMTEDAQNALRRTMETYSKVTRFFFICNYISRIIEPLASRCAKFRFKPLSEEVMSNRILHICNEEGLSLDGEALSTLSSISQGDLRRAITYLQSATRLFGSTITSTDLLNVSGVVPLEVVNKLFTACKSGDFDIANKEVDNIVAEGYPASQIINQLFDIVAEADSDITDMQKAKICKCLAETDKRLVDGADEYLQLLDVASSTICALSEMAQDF

These are yes or no findings as the source states them, for the method shown. In cells and extracts the contact can be indirect. Some results given as binding are weak or reduced against the parent protein; the word gives no strength.

Common to all, as to assay: split reporter; BiFC; YFP^N (aa 1-155) and YFP^C (aa 156-239) fusions (pCAMBIA-SPYNE, pCAMBIA-SPYCE) co-expressed in tobacco (Nicotiana benthamiana) leaf epidermal cells through Agrobacterium GV3101; confocal microscopy of YFP; only the two named fusions
Test [1] deals with T1, OsRFC1 (rice (Oryza sativa)) (UniProt Q2R2B4).
T1 sequence: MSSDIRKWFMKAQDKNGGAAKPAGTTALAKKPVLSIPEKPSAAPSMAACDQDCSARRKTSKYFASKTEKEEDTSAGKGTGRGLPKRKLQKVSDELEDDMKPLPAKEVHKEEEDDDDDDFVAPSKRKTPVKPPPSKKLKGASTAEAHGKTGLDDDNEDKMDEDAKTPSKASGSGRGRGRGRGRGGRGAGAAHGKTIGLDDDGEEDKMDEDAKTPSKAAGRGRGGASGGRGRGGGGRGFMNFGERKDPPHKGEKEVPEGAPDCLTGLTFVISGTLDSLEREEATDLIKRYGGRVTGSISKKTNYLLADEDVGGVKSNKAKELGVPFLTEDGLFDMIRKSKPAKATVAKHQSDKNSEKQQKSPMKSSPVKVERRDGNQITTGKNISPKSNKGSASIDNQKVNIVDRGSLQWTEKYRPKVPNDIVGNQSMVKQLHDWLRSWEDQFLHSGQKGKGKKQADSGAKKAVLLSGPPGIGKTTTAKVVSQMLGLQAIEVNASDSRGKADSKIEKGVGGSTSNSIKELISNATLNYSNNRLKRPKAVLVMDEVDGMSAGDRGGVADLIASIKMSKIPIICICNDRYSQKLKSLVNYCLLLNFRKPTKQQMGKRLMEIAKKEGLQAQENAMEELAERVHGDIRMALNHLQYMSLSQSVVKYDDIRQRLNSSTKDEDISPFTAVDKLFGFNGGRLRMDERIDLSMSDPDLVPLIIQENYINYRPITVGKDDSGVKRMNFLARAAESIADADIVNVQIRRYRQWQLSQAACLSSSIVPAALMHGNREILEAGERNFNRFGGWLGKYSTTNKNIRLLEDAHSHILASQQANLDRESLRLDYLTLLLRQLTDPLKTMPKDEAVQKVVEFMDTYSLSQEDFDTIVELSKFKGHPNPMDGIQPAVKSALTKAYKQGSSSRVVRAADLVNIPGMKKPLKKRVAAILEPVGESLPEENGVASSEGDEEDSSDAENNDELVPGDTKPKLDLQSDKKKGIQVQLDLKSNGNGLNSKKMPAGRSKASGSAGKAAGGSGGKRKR

Test [2] addresses OsRFC2 (rice (Oryza sativa)) (UniProt Q9FXM3).
In test [3] the target is AtRFC4 (Arabidopsis thaliana) (UniProt Q93ZX1).
Test [4] addresses T2, OsRFC4 (rice (Oryza sativa)) (UniProt Q7XRX1).
T2 sequence: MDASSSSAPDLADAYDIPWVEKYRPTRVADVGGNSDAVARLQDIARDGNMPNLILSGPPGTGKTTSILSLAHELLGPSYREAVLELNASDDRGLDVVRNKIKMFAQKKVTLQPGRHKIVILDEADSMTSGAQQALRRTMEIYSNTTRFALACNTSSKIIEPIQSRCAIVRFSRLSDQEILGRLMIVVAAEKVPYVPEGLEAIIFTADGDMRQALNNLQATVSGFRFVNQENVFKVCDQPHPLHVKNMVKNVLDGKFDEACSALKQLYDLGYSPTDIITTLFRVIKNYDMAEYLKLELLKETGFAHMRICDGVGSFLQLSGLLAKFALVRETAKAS

Test [5] has as its target T3, OsRFC3 (rice (Oryza sativa)) (UniProt Q6YZ54).
T3 sequence: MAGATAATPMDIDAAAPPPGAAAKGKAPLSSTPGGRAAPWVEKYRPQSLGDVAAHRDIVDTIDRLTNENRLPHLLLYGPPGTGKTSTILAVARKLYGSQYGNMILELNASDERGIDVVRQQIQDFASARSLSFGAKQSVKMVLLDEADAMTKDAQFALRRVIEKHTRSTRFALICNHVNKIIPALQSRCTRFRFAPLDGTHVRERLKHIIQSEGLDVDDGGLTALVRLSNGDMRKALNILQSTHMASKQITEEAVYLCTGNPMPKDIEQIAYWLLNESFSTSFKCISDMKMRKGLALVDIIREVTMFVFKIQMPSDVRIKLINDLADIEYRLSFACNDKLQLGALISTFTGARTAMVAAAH

B1: OsRFC5Δ1–237 (domain or fragment, UniProt Q852K3 238-354)
chain: QQYPFTSNQVAPPLDWEQYVSEIAADIMKEQSPKRLFAVRQKFYELLVNCIPPESILKKLLAELLKKLDSDLKHEICHWAAHYEHKMRLGSKAIFHLEAFVAKFMSIYKEFLVSTFG
Regarding B1, the binding result in test [1] and in test [2] was “binds” in each case.

B2: AtRFC2 Δ1–224 (domain or fragment, UniProt Q9CAM7 225-333)
chain: VNQENVFKVCDQPHPLHVKNIVRNVLESKFDIACDGLKQLYDLGYSPTDIITTLFRIIKNYDMAEYLKLEFMKETGFAHMRICDGVGSYLQLCGLLAKLSIVRETAKAP
As for B2, the binding result in test [3] is recorded as “binds”.

B3: OsRFC5 Δ235–354 (domain or fragment, UniProt Q852K3 1-234)
chain: MLWVDKYRPKTLDKVTVHDQVAQNLKKLVAEQDCPHLLFYGPSGSGKKTLVMALIKQMFGAGADKVKMENKTWKIDTGSRNIEIELAMLSSAHHVEMNPSDAGFQDRYVVQEVIKEMAKNRPIDAKGKRAFKVLVLNEVDKLSREAQHSLRRTMEKYSASCRLILCCNSSSKVTEAVRSRCLNVRVNAPSEDQIVQVLEFIGKKENLQLPFGFAARIAAQSNRNLRRAILFFET
As to B3, the binding entry in test [1] and in test [2] was “binds” throughout.

B4: OsRFC3 Δ1–245 (domain or fragment, UniProt Q6YZ54 246-361)
chain: ASKQITEEAVYLCTGNPMPKDIEQIAYWLLNESFSTSFKCISDMKMRKGLALVDIIREVTMFVFKIQMPSDVRIKLINDLADIEYRLSFACNDKLQLGALISTFTGARTAMVAAAH
Take B4: the binding result in test [1], in test [2] and in test [4] was “binds” each time.

B5: AtRFC5 Δ1–239 (domain or fragment, UniProt Q8VXX4 240-354)
chain: YPFTGNQVISPMDWEEYVAEIATDMMKEQSPKKLFQVRGKVYELLVNCIPPEVILKRLLHELLKKLDSELKLEVCHWAAYYEHRMRLGQKAIFHIEAFVAKFMSIYKNFLISTFG
As to B5, in test [3], the binding entry is “binds”.

B6: OsRFC5 (protein, UniProt Q852K3 1-354)
chain: MLWVDKYRPKTLDKVTVHDQVAQNLKKLVAEQDCPHLLFYGPSGSGKKTLVMALIKQMFGAGADKVKMENKTWKIDTGSRNIEIELAMLSSAHHVEMNPSDAGFQDRYVVQEVIKEMAKNRPIDAKGKRAFKVLVLNEVDKLSREAQHSLRRTMEKYSASCRLILCCNSSSKVTEAVRSRCLNVRVNAPSEDQIVQVLEFIGKKENLQLPFGFAARIAAQSNRNLRRAILFFETCKVQQYPFTSNQVAPPLDWEQYVSEIAADIMKEQSPKRLFAVRQKFYELLVNCIPPESILKKLLAELLKKLDSDLKHEICHWAAHYEHKMRLGSKAIFHLEAFVAKFMSIYKEFLVSTFG
Take B6: the binding entry in test [3], in test [1] and in test [2] was “binds” each time.

B7: OsRFC4 (protein, UniProt Q7XRX1 1-335)
chain: MDASSSSAPDLADAYDIPWVEKYRPTRVADVGGNSDAVARLQDIARDGNMPNLILSGPPGTGKTTSILSLAHELLGPSYREAVLELNASDDRGLDVVRNKIKMFAQKKVTLQPGRHKIVILDEADSMTSGAQQALRRTMEIYSNTTRFALACNTSSKIIEPIQSRCAIVRFSRLSDQEILGRLMIVVAAEKVPYVPEGLEAIIFTADGDMRQALNNLQATVSGFRFVNQENVFKVCDQPHPLHVKNMVKNVLDGKFDEACSALKQLYDLGYSPTDIITTLFRVIKNYDMAEYLKLELLKETGFAHMRICDGVGSFLQLSGLLAKFALVRETAKAS
In the case of B7, the binding entry in test [3], in test [1] and in test [5] was “binds” throughout.

B8: OsRFC4 Δ1–222 (domain or fragment, UniProt Q7XRX1 223-335)
chain: GFRFVNQENVFKVCDQPHPLHVKNMVKNVLDGKFDEACSALKQLYDLGYSPTDIITTLFRVIKNYDMAEYLKLELLKETGFAHMRICDGVGSFLQLSGLLAKFALVRETAKAS
B8: the binding entry in test [1] and in test [5] was “binds” each time.

As for MDASSSSAPDLADAYDIPWVEKYRPTRVADVGGNS (domain or fragment, UniProt Q7XRX1 1-35) [OsRFC4 Δ36–335], in test [5], the binding entry is “binds”.

B9: OsRFC5 Δ205–354 (domain or fragment, UniProt Q852K3 1-204)
chain: MLWVDKYRPKTLDKVTVHDQVAQNLKKLVAEQDCPHLLFYGPSGSGKKTLVMALIKQMFGAGADKVKMENKTWKIDTGSRNIEIELAMLSSAHHVEMNPSDAGFQDRYVVQEVIKEMAKNRPIDAKGKRAFKVLVLNEVDKLSREAQHSLRRTMEKYSASCRLILCCNSSSKVTEAVRSRCLNVRVNAPSEDQIVQVLEFIGKK
On to B9, for which the binding result is “no binding” in test [1] and “binds” in test [2].

B10: OsRFC4 Δ136–335 (domain or fragment, UniProt Q7XRX1 1-135)
chain: MDASSSSAPDLADAYDIPWVEKYRPTRVADVGGNSDAVARLQDIARDGNMPNLILSGPPGTGKTTSILSLAHELLGPSYREAVLELNASDDRGLDVVRNKIKMFAQKKVTLQPGRHKIVILDEADSMTSGAQQAL
As for B10, the binding result in test [1] is on record as “no binding”; in test [5] it was “binds”.

B11: OsRFC5 Δ1–300 (domain or fragment, UniProt Q852K3 301-354)
chain: LLKKLDSDLKHEICHWAAHYEHKMRLGSKAIFHLEAFVAKFMSIYKEFLVSTFG
For B11, the binding result in test [1] and in test [2] was “no binding” throughout.

B12: OsRFC4 Δ216–335 (domain or fragment, UniProt Q7XRX1 1-215)
chain: MDASSSSAPDLADAYDIPWVEKYRPTRVADVGGNSDAVARLQDIARDGNMPNLILSGPPGTGKTTSILSLAHELLGPSYREAVLELNASDDRGLDVVRNKIKMFAQKKVTLQPGRHKIVILDEADSMTSGAQQALRRTMEIYSNTTRFALACNTSSKIIEPIQSRCAIVRFSRLSDQEILGRLMIVVAAEKVPYVPEGLEAIIFTADGDMRQALN
As to B12, the binding entry in test [1] and in test [5] was “binds” each time.

B13: OsRFC5 Δ155–354 (domain or fragment, UniProt Q852K3 1-154)
chain: MLWVDKYRPKTLDKVTVHDQVAQNLKKLVAEQDCPHLLFYGPSGSGKKTLVMALIKQMFGAGADKVKMENKTWKIDTGSRNIEIELAMLSSAHHVEMNPSDAGFQDRYVVQEVIKEMAKNRPIDAKGKRAFKVLVLNEVDKLSREAQHSLRRTM
B13: the binding result in test [1] and in test [2] was “no binding” in each case.
